{"source": "the supplement of paper PMC10498489", "note": "In all, about 2,300 compounds went through this assay and about 330 (14%) showed activity.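 Rule for the calls: active = median modified Z-score above 1.96; inactive = 1.96 or below.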 The entries are a selection whose mix differs from that of the whole data set."}
{"tested_on": "HepG2 Srxn1-GFP reporter cells (+30 nM CDDO-Me)", "assay": "Srxn1-GFP intensity median modified Z-score relative to plate median; higher = stronger NRF2 / oxidative stress reporter activation, active = hit call of the paper", "settings": "10 µM; exposure time: 24h", "summary_of_the_method": "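Values give the median, over replicates, of the modified Z-score of GFP intensity on each plate. HepG2 Srxn1-GFP BAC reporter cells were co-treated for 24 h with an NRF2 activator at 30 nM and compound at 10 μM (≤0.1% DMSO) in three replicate plates, then analysed per cell for cytoplasmic GFP on confocal images with at least 100 cells. Scaling used 1.4826 × median absolute deviation.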"}
{"smiles": "CN(C)CCc1c[nH]c2ccc(Cn3cncn3)cc12", "note": "[euspeclibcmpd998]", "Srxn1-GFP intensity median modified Z-score": "inactive: 0.0248"}
{"smiles": "Nc1ccc(S(=O)(=O)c2ccc(N)cc2)cc1", "note": "[euspeclibcmpd82]", "Srxn1-GFP intensity median modified Z-score": "inactive: 0"}
{"smiles": "OC[C@H]1O[C@@H](Oc2ccc(O)cc2)[C@H](O)[C@@H](O)[C@@H]1O", "note": "[euspeclibcmpd1710]", "Srxn1-GFP intensity median modified Z-score": "inactive: -0.0575"}
{"smiles": "NC(=O)NC(CC(=O)O)C(=O)O", "note": "(stereo unspecified)", "Srxn1-GFP intensity median modified Z-score": "inactive: 1.02"}
{"smiles": "CCN(CC)Cc1ccc(N=c2cc[nH]c3cc(Cl)ccc23)cc1O", "note": "[euspeclibcmpd22]", "Srxn1-GFP intensity median modified Z-score": "active: 3.72"}
{"smiles": "O=C(O[C@H]1CN2CCC1CC2)N1CCc2ccccc2[C@@H]1c1ccccc1", "note": "[euspeclibcmpd807]", "Srxn1-GFP intensity median modified Z-score": "inactive: -0.131"}
{"smiles": "CN1CCCCC1CCN1c2ccccc2Sc2ccc([S+](C)[O-])cc21", "note": "(stereo unspecified) [euspeclibcmpd700]", "Srxn1-GFP intensity median modified Z-score": "inactive: -0.503"}
{"smiles": "CN1CCCC(n2nc(Cc3ccc(Cl)cc3)c3ccccc3c2=O)CC1", "note": "(stereo unspecified) [euspeclibcmpd749]", "Srxn1-GFP intensity median modified Z-score": "inactive: 0.118"}
{"smiles": "CN(C)CCC[C@@]1(c2ccc(F)cc2)OCc2cc(C#N)ccc21", "note": "[euspeclibcmpd2158]", "Srxn1-GFP intensity median modified Z-score": "inactive: 0.664"}
{"smiles": "N=c1ncn([C@@H]2O[C@H](CO)[C@@H](O)[C@H]2O)c(=O)[nH]1", "note": "[euspeclibcmpd436]", "Srxn1-GFP intensity median modified Z-score": "active: 15.1"}
{"smiles": "CC1=CC(=O)NS(=O)(=O)O1", "note": "[euspeclibcmpd2309]", "Srxn1-GFP intensity median modified Z-score": "inactive: -0.191"}
{"smiles": "COc1ccc(CC(N)C(=O)N[C@@H]2[C@@H](CO)OC(n3cnc4c(N(C)C)ncnc43)[C@@H]2O)cc1", "note": "(stereo partly specified) [euspeclibcmpd2118]", "Srxn1-GFP intensity median modified Z-score": "active: 2.51"}
{"smiles": "COc1cc(-c2coc3cc(O)c(OC)c(O)c3c2=O)cc(O)c1OC", "note": "[euspeclibcmpd1394]", "Srxn1-GFP intensity median modified Z-score": "inactive: 1.24"}
{"smiles": "NC1(C(=O)O)CCCC1", "note": "[euspeclibcmpd1759]", "Srxn1-GFP intensity median modified Z-score": "inactive: -0.415"}
{"smiles": "COc1cc2cc3c4cc(OC)c(OC)cc4cc[n+]3c(C)c2cc1OC", "note": "[euspeclibcmpd1974]", "Srxn1-GFP intensity median modified Z-score": "inactive: 0.119"}
{"smiles": "O=C(C=Cc1ccccc1)c1ccc(O)cc1O", "note": "[euspeclibcmpd1990]", "Srxn1-GFP intensity median modified Z-score": "active: 2.48"}
{"smiles": "Cc1scc2c1N(C(=O)CN1CCN(C)CC1)c1ccccc1NC2=O", "note": "[euspeclibcmpd763]", "Srxn1-GFP intensity median modified Z-score": "inactive: 0.0543"}
{"smiles": "Cc1cccc(Nc2ccccc2C(=O)OCC#N)c1C", "Srxn1-GFP intensity median modified Z-score": "inactive: 0.491"}
{"smiles": "CC(=O)c1ccc(S(=O)(=O)NC(=O)NC2CCCCC2)cc1", "note": "[euspeclibcmpd1292]", "Srxn1-GFP intensity median modified Z-score": "inactive: 0.678"}
{"smiles": "COc1ccc(CN(CCN(C)C)c2ccccn2)cc1", "note": "[euspeclibcmpd258]", "Srxn1-GFP intensity median modified Z-score": "inactive: -0.439"}
{"smiles": "CCCNC(C)C(=O)Nc1ccccc1C", "note": "(stereo unspecified) [euspeclibcmpd565]", "Srxn1-GFP intensity median modified Z-score": "inactive: -0.4"}
